This note sets out measurements from article PMC2970546.

No constants are given. Whether binding was seen depends on the method and setting.

Assay [1] has as its target T1, human septin 7 (human), Q16181.
T1 chain: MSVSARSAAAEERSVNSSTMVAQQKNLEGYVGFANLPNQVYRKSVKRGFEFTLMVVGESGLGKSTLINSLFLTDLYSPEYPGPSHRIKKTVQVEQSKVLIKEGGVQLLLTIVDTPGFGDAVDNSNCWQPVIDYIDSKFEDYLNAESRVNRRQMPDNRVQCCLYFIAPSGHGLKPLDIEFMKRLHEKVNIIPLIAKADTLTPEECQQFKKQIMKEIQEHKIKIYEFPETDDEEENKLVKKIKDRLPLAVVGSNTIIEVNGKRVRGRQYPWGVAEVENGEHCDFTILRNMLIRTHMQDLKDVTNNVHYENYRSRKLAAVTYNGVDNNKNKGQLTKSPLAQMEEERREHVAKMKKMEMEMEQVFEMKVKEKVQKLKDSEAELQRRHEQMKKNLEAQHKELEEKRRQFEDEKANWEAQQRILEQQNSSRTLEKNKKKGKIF
Description: two-hybrid; LexA-septin bait (modified pBTM116) in yeast L40 screened against human fetal brain and human leukocyte cDNA libraries (pACT2); minimal medium without Trp, Leu, His, with 5 mM 3-AT; every clone confirmed one-to-one with its bait by beta-galactosidase filter assay, empty bait vector as control. To be noted: remark: other sources report otherwise.

The target of assay [2] is T2, human septin 2 (human), Q15019.
T2 chain: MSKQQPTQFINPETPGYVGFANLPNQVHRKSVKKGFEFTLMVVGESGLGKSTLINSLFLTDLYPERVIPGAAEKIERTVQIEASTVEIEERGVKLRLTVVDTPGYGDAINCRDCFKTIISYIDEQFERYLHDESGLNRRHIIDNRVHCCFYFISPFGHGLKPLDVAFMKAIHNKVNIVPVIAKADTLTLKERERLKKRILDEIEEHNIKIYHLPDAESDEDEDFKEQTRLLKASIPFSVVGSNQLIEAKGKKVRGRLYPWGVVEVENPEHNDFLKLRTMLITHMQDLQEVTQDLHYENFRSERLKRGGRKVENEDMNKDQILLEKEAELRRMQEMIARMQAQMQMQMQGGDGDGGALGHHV
The description is as above. To be noted: remark: other sources report otherwise.

B1: human septin 7, Q16181-1 1-437 (protein)
chain: MSVSARSAAAEERSVNSSTMVAQQKNLEGYVGFANLPNQVYRKSVKRGFEFTLMVVGESGLGKSTLINSLFLTDLYSPEYPGPSHRIKKTVQVEQSKVLIKEGGVQLLLTIVDTPGFGDAVDNSNCWQPVIDYIDSKFEDYLNAESRVNRRQMPDNRVQCCLYFIAPSGHGLKPLDIEFMKRLHEKVNIIPLIAKADTLTPEECQQFKKQIMKEIQEHKIKIYEFPETDDEEENKLVKKIKDRLPLAVVGSNTIIEVNGKRVRGRQYPWGVAEVENGEHCDFTILRNMLIRTHMQDLKDVTNNVHYENYRSRKLAAVTYNGVDNNKNKGQLTKSPLAQMEEERREHVAKMKKMEMEMEQVFEMKVKEKVQKLKDSEAELQRRHEQMKKNLEAQHKELEEKRRQFEDEKANWEAQQRILEQQNSSRTLEKNKKKGKIF
B1: the binding result in assay [1] and in assay [2] was “no binding” each time.
